Measurements: the supplement of paper PMC6089552
The whole screen tested about 3,200 compounds, of which about 300 (9.4%) showed activity. Only a part is listed here, and it is no random draw.

Tested on: A673/TR/shEF
Test: cell viability (LOESS-normalised, relative to median of negative controls) (log2 ratio); higher = more viable cells (less compound effect), active = hit call of the paper (over 3 MAD below the median)
Conditions: treatment time: 72 h
How it was run: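 A673/TR/shEF Ewing sarcoma cells were plated at 1,500 per well in 384-well plates and cultured with or without doxycycline, added 24 h before compounds, to induce EWS-FLI1 shRNA knockdown. Library compounds at two or more concentrations, alongside DMSO controls, were applied for three days. Cell viability was measured by CellTiter-Glo luminescence on an Envision reader. Readings were LOESS-corrected per plate, divided by the median of negative controls and log2-transformed, and hits were wells lying at least three median absolute deviations from the median of all screened wells.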

[1] = 0.103 µM, library screen: screen3, EWS-FLI1 expression: high (no doxycycline)
[2] = 0.103 µM, library screen: screen3, EWS-FLI1 expression: low (doxycycline-induced shRNA knockdown)
[3] = 0.25 µM, library screen: screen1, EWS-FLI1 expression: high (no doxycycline)
[4] = 0.25 µM, library screen: screen1, EWS-FLI1 expression: low (doxycycline-induced shRNA knockdown)
[5] = 0.308 µM, library screen: screen3, EWS-FLI1 expression: high (no doxycycline)
[6] = 0.308 µM, library screen: screen3, EWS-FLI1 expression: low (doxycycline-induced shRNA knockdown)
[7] = 0.926 µM, library screen: screen3, EWS-FLI1 expression: high (no doxycycline)
[8] = 0.926 µM, library screen: screen3, EWS-FLI1 expression: low (doxycycline-induced shRNA knockdown)
[9] = 2.5 µM, library screen: screen1, EWS-FLI1 expression: high (no doxycycline)
[10] = 2.5 µM, library screen: screen1, EWS-FLI1 expression: low (doxycycline-induced shRNA knockdown)
[11] = 2.8 µM, library screen: screen3, EWS-FLI1 expression: high (no doxycycline)
[12] = 2.8 µM, library screen: screen3, EWS-FLI1 expression: low (doxycycline-induced shRNA knockdown)
[13] = 8.3 µM, library screen: screen3, EWS-FLI1 expression: high (no doxycycline)
[14] = 8.3 µM, library screen: screen3, EWS-FLI1 expression: low (doxycycline-induced shRNA knockdown)
[15] = 25 µM, library screen: screen3, EWS-FLI1 expression: high (no doxycycline)
[16] = 25 µM, library screen: screen3, EWS-FLI1 expression: low (doxycycline-induced shRNA knockdown)
[17] = 0.25 µM, library screen: screen2, EWS-FLI1 expression: high (no doxycycline)
[18] = 0.25 µM, library screen: screen2, EWS-FLI1 expression: low (doxycycline-induced shRNA knockdown)
[19] = 2.5 µM, library screen: screen2, EWS-FLI1 expression: high (no doxycycline)
[20] = 2.5 µM, library screen: screen2, EWS-FLI1 expression: low (doxycycline-induced shRNA knockdown)

Measured: cell viability (log2)

Cc1cc(NS(=O)(=O)c2ccc(N)cc2)no1
inactive: [1] 0.0914 | [2] 0.0238 | [3] 0.0536 | [4] 0.121 | [5] 0.102 | [6] 0.0418 | [7] 0.141 | [8] 0.0634 | [9] 0.0944 | [10] 0.121 | [11] 0.126 | [12] 0.0903 | [13] 0.144 | [14] 0.0558 | [15] 0.147 | [16] 0.0962

CN[C@@H]1[C@@H](O)[C@@H](O[C@@H]2[C@@H](O)[C@H](O[C@H]3OC(CN)=CC[C@H]3N)[C@@H](N)C[C@H]2N)OC[C@]1(C)O
inactive: [3] 0.0635 | [4] 0.0858 | [9] 0.103 | [10] 0.101

O=C(c1ccc2c(c1)OCCO2)N1CCCCC1
inactive: [17] 0.241 | [18] -0.0218 | [19] 0.114 | [20] 0.185

C=C[C@@H](C1=CC(=O)C(OC)=C(OC)C1=O)c1ccccc1
inactive: [4] 0.026 | [9] -0.00361 | [10] 0.0945
active: [3] -0.165

COc1cc(CN2CCN(Cc3ccccc3Br)CC2)cc(OC)c1OC
inactive: [3] 0.141 | [4] 0.0128 | [9] 0.124 | [10] -0.0338

O=C1OC(=O)C2C3CCC(O3)C12 (configuration not stated)
inactive: [3] 0.115 | [4] 0.0886 | [17] 0.138 | [18] 0.0834 | [9] 0.14 | [10] 0.011 | [19] 0.114 | [20] 0.0316

COc1cc(O)c2c(c1)C(=O)c1cc(C)cc(O)c1C2=O
inactive: [3] 0.0766 | [4] 0.0322 | [9] 0.16 | [10] 0.0382

CC1(C)O[C@@H]2C[C@H]3[C@@H]4CCC5=CC(=O)C=C[C@]5(C)[C@H]4[C@@H](O)C[C@]3(C)[C@]2(C(=O)CO)O1
inactive: [1] -0.0091 | [2] 0.0117 | [5] -0.0587 | [6] 0.0625 | [7] 0.111 | [8] 0.0874 | [11] 0.0491 | [12] -0.0473 | [13] 0.0357 | [14] 0.0906 | [15] 0.105 | [16] 0.147

c1ccc(-c2ccccn2)nc1
inactive: [17] 0.15 | [18] 0.103 | [19] 0.133 | [20] 0.103

COc1ccccc1N1CCN(CCN(C(=O)c2ccc(F)cc2)c2ccccn2)CC1
inactive: [17] 0.142 | [18] 0.0764 | [19] 0.0684 | [20] 0.0252

O=C(O)Cc1cc(I)c(Oc2cc(I)c(O)c(I)c2)c(I)c1
inactive: [3] 0.0518 | [4] 0.0863 | [9] 0.0776 | [10] -0.0191

CCN(CC)CCOc1ccc2c(c1)C(=O)c1cc(OCCN(CC)CC)ccc1-2
inactive: [3] 0.195 | [4] 0.139 | [9] 0.212 | [10] 0.101

Oc1ccc(Cn2cc[nH]c2=S)cc1
inactive: [17] 0.193 | [18] 0.126 | [19] 0.258 | [20] 0.0645

O=C(CCCCCCC(=O)Nc1ccccc1)NO
active: [13] -1.12 | [14] -0.391 | [15] -2.67 | [16] -1.56

Cc1cc(C)c(NC(=O)C[C@H](CC(=O)O)c2cccc3ccccc23)c(C(=O)N2CCC3(CCCC3)CC2)c1
inactive: [17] 0.0801 | [18] 0.123 | [19] 0.177 | [20] 0.14

COC(=O)CC1C(C)(C)C(OC(C)=O)[C@@H]2[C@@H](OC(C)=O)[C@]34O[C@@]2(O)[C@]1(C)C3CC[C@]1(C)C4=CC(=O)O[C@H]1c1ccoc1 (some centres not stated)
inactive: [3] 0.0398 | [4] 0.0526 | [9] 0.056 | [10] 0.0405

CCNC(=O)CCC/C=C\C[C@@H]1[C@@H](/C=C/[C@@H](O)CCc2ccccc2)[C@H](O)C[C@@H]1O
inactive: [1] -0.00225 | [2] -0.0145 | [5] 0.059 | [6] 0.0209 | [7] 0.0151 | [8] 0.0659 | [11] 0.0571 | [12] 0.0311 | [13] 0.0442 | [14] 0.0426 | [15] 0.0585 | [16] 0.0859

CN1C(=O)CCC1c1cccnc1 (configuration not stated)
inactive: [17] 0.264 | [18] 0.181 | [19] 0.161 | [20] 0.0586

C[C@]12C[C@H](O)[C@H]3[C@@H](CCC4=CC(=O)CC[C@@]43C)[C@@H]1CC[C@@H]2C(=O)CO
inactive: [17] 0.159 | [18] 0.128 | [19] 0.172 | [20] 0.0224

Cc1ccc(NC(=O)c2cccc(N(C)C)c2)cc1NC(=O)c1ccc(O)cc1
0.277: [3]
active: [9] -0.147 | 25 µM, library screen: screen1, EWS-FLI1 expression: high (no doxycycline) -0.322
inactive: 0.025 µM, library screen: screen1, EWS-FLI1 expression: high (no doxycycline) 0.191 | 0.025 µM, library screen: screen1, EWS-FLI1 expression: low (doxycycline-induced shRNA knockdown) -0.0357 | [4] 0.139 | [10] 0.168 | 25 µM, library screen: screen1, EWS-FLI1 expression: low (doxycycline-induced shRNA knockdown) 0.196

Nc1c2c(nc3ccccc13)CCCC2
inactive: [3] 0.0619 | [4] -0.0315 | [17] 0.123 | [18] 0.153 | [9] 0.0644 | [10] -0.00851 | [19] 0.0137 | [20] 0.0585

C[C@@H]1O[C@H](OC[C@H]2O[C@@H](Oc3c(-c4ccc(O)c(O)c4)oc4cc(O)cc(O)c4c3=O)[C@H](O)[C@@H](O)[C@@H]2O)[C@H](O)[C@H](O)[C@H]1O
inactive: [3] -0.0111 | [4] 0.0513 | [9] 0.125 | [10] 0.094

O=c1cc(-c2ccccc2)oc2cc(O)cc(O)c12
inactive: [3] 0.121 | [4] 0.009 | [9] 0.165 | [10] 0.16

COC(=O)c1ccccc1
inactive: [3] 0.0726 | [4] 0.05 | [9] 0.155 | [10] 0.0447

CCN(CC)C(=S)SSC(=S)N(CC)CC
inactive: [1] 0.0335 | [2] 0.117 | [17] 0.112 | [18] 0.121 | [5] -0.158 | [6] 0.0728
active: [3] -1.42 | [4] -0.538 | [7] -4.24 | [8] -2.11 | [9] -2.82 | [10] -1.78 | [19] -4.17 | [20] -0.213 | [11] -4.24 | [12] -4.26 | [13] -4.26 | [14] -4.27 | [15] -4.26 | [16] -4.25

C=C[C@@]1(C)CC(=O)[C@]2(O)[C@@]3(C)[C@@H](O)CCC(C)(C)[C@@H]3[C@H](O)[C@H](OC(C)=O)[C@@]2(C)O1
inactive: [17] 0.179 | [18] 0.0395 | [19] 0.202 | [20] -0.0301

C/C(=C(\CCOP(=O)(O)O)SC(=O)c1ccccc1)N(C=O)Cc1cnc(C)nc1N
inactive: [3] 0.115 | [4] 0.132 | [9] 0.107 | [10] 0.0772

CCCC(=O)NCCc1c2n(c3ccc(OC)cc13)Cc1ccccc1-2
inactive: [17] 0.13 | [18] 0.122 | [19] 0.156 | [20] 0.045

CCC(C(N)=O)c1ccccc1 (configuration not stated)
inactive: [3] 0.0612 | [4] -0.0114 | [9] 0.141 | [10] -0.108

CC1(O)/C=C\C=C(\CO)C2CC(C)(C)C2(O)CC1 (configuration not stated)
inactive: [3] 0.0666 | [4] 0.000836 | [9] 0.128 | [10] 0.00974

CCOc1cc(CC(=O)N[C@@H](CC(C)C)c2ccccc2N2CCCCC2)ccc1C(=O)O
inactive: [1] -0.000142 | [2] 0.0449 | [5] 0.00176 | [6] 0.0482 | [7] 0.0509 | [8] 0.0503 | [11] 0.0796 | [12] 0.0426 | [13] 0.137 | [14] 0.0933 | [15] 0.103 | [16] 0.0918

COc1cc2c(cc1OC)C1(O)C(=O)c3ccc(O)c(C(=O)O)c3OC1CO2 (configuration not stated)
inactive: [3] -0.00498 | [4] 0.0907 | [9] 0.0685 | [10] 0.156

C#C[C@]1(O)CC[C@H]2[C@@H]3CCc4cc(O)ccc4[C@H]3CC[C@@]21C
inactive: [1] 0.118 | [2] -0.0292 | [3] 0.073 | [4] -0.00134 | [5] 0.163 | [6] 0.106 | [7] 0.103 | [8] 0.0863 | [9] 0.167 | [10] 0.0942 | [11] 0.118 | [12] 0.0746 | [13] 0.0672 | [14] 0.0743 | [15] 0.0815 | [16] 0.112

NC(CCCP(=O)(O)O)C(=O)O (configuration not stated)
inactive: [17] 0.186 | [18] 0.0104 | [19] 0.135 | [20] 0.138

C[N+](C)(CCCCCC[N+](C)(C)CCCN1C(=O)c2cccc3cccc(c23)C1=O)CCCN1C(=O)c2cccc3cccc(c23)C1=O
inactive: [17] 0.21 | [18] 0.0792 | [19] 0.139 | [20] 0.0785

CC(C)=CC1C(CO)C1(C)C (configuration not stated)
inactive: [3] 0.105 | [4] 0.00359 | [9] 0.117 | [10] 0.123

Cc1occc(=O)c1O
inactive: [3] 0.0659 | [4] 0.0622 | [9] 0.0741 | [10] 0.0222

NCCSSCCN
inactive: [3] 0.191 | [4] 0.0743 | [17] 0.16 | [18] 0.0654 | [9] 0.122 | [10] 0.081 | [19] 0.0665 | [20] 0.0319
